Paper PMC4336329 (PLoS ONE, 2015)
The whole screen tested about 310,000 compounds, of which about 14,000 (4.5%) showed an effect of 50% or more. Effects have a minus sign here. The list shows a part of the results.

target: human ether-à-go-go-related gene (hERG) potassium channel (human, UniProt Q12809); experiment: primary screen, population patch clamp on CHO cells stably expressing hERG
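Also: peak tail current of the secondary pulse compared with the same well before compound.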

Chain of human ether-à-go-go-related gene (hERG) potassium channel (Q12809 whole entry, looked up): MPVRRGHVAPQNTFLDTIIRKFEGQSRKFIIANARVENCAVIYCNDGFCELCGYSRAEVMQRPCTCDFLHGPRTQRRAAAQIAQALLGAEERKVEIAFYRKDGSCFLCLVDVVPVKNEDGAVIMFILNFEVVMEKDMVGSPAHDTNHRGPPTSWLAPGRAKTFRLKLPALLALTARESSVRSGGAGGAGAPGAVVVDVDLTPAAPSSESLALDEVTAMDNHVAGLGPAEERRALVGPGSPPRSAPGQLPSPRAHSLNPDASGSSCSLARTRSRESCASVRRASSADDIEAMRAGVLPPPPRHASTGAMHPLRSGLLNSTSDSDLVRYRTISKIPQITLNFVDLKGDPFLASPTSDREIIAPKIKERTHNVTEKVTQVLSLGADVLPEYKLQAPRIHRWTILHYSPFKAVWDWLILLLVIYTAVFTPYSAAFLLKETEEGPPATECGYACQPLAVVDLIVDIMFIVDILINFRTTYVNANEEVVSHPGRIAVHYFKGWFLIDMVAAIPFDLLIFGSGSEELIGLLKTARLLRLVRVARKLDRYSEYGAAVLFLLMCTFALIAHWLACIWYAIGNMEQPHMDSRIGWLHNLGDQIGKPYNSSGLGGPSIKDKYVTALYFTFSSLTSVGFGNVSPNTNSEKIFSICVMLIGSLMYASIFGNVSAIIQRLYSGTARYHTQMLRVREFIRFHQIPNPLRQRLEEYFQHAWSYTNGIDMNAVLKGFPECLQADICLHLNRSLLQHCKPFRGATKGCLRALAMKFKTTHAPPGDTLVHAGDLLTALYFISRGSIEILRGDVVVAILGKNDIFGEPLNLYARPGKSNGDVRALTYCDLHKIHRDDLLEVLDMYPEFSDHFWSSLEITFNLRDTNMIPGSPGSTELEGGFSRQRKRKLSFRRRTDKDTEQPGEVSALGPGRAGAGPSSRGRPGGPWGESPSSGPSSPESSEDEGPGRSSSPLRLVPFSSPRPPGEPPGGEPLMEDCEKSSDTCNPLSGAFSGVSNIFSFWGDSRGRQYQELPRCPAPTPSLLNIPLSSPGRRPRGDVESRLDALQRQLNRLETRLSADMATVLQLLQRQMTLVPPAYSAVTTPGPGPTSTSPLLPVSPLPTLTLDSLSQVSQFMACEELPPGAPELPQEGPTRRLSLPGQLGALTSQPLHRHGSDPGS

Compound | hERG current change (%, negative = inhibition) at 10uM
COc1ccccc1N1CCN(C(=O)CSc2nnc3n2C(C)(C)Cc2ccccc2-3)CC1 | -37.4%
COC(=O)Cn1c(=NC(=O)CCS(=O)(=O)c2ccccc2)sc2c(OC)ccc(OC)c21 | 6.2%
CN1CCN(/N=C/c2c(O)n(Cc3ccc(F)cc3)c(=O)[nH]c2=O)CC1 | 0.78%
CCSc1nnc(NC(=O)CSc2ncccn2)s1 | -1.13%
CC(C)c1ccc(/C=C2\SC(=O)N(CC(=O)NC3C=CS(=O)(=O)C3)C2=O)cc1 (stereo not drawn) | 5.89%
Cc1cnc(C(=O)OCC(=O)N(C(C)C)C(C)C)cn1 | 24%
O=C(NC1(C(F)(F)F)C(=O)Nc2c1c(=O)[nH]c(=O)n2-c1ccc(F)cc1)c1cccnc1 (stereo not drawn) | 16.9%
Cc1ccc(S(=O)(=O)C2(C(=O)NCc3ccc4c(c3)OCO4)CC2)cc1 | -7.05%
COc1cc([N+](=O)[O-])ccc1NC(=O)NNC(=O)c1sccc1C | 2.32%
Cc1ccc(-n2ccc(=O)c(C(=O)Nc3ccc(S(=O)(=O)Nc4nccs4)cc3)n2)cc1 | 16.4%
Cc1ccc(Cl)cc1N1CCN(C(=O)CCC(=O)O)CC1 | 15.1%
Brc1ccccc1-n1nnc(-c2cccnc2)n1 | -9.54%
CCOC(=O)Cc1csc(NC(=O)CSc2nc3sc(C(=O)O)c(C)c3c(=O)[nH]2)n1 | -33.9%
CCOc1ccc(CN2CCC(=O)NC2=O)cc1 | -5.71%
O=C(Nc1cc(C(F)(F)F)ccc1N1CCCC1)c1ccc2c(c1)OCO2 | 3.46%
CCCCN(C)CCC(=O)Nc1ccc(C)cc1.Cl | -14.8%
CCOC(=O)CNc1ccc2c(c1)OCO2 | 14.1%
CC(C)(C)c1cc(P(=O)(c2ccccc2)c2ccccc2)ccc1O | 6.08%
CCOC(=O)c1c(NC(=O)CCNCc2ccco2)sc2c1CCC2.O=C(O)C(=O)O | -23.5%
CC(C)OC(=O)c1cc2c(ccn2C)n1CC(=O)N1CCC(Cc2ccccc2)CC1 | -1.62%
COCc1ccc(C(=O)N2CCN(CC(=O)N3CCCC3)CC2)cc1 | -16.5%

Compound | hERG current change (%, negative = inhibition) at 10uM
COc1ccc(C(=O)NCc2cccnc2)cc1S(=O)(=O)N1CCCc2ccccc21 | -26.3%
CC(=O)OCC(OC(C)=O)C(OC(C)=O)C(OC(C)=O)C(=O)Nc1cccc(C)c1 (stereo not drawn) | 26.9%
Cc1n[nH]c(C)c1S(=O)(=O)N1CCCC(C(=O)NCc2ccc(F)cc2)C1 (stereo not drawn) | 21.7%
Cc1cc(Br)ccc1NC(=O)c1ccc(-n2cncn2)c([N+](=O)[O-])c1 | 12.3%
CC(C)[C@H](NC(=O)C1CCCC1)c1nc2ccccc2[nH]1 | 7.25%
CC(C(=O)OCc1nnc(-c2ccccc2)o1)N1C(=O)c2ccccc2C1=O (stereo not drawn) | -19.2%
CCN(CC)c1ccc(S(=O)(=O)N(CC)CC)cc1NC(=O)c1cccnc1 | -72.5%
CCOC(=O)c1cc(C#N)c(SCc2cccc3ccccc23)nc1C | 9.85%
Cc1sc2ncn(CC(=O)N3CCN(c4ccccc4F)CC3)c(=O)c2c1S(=O)(=O)N1CCOCC1 | -8.31%
O=C(Nc1ccc2oc(Cc3ccc(Cl)cc3)nc2c1)c1cccnc1 | -19.6%
O=c1cc(-c2ccccc2Cl)oc2c(NS(=O)(=O)c3ccccc3C(F)(F)F)ccc(O)c12 | 4.79%
CC(C)Oc1ccccc1NC(=O)CSc1nc2ccccc2c(=O)n1C | -14.8%
Cc1c([N+](=O)[O-])cc(C(=O)NCc2ccc(F)cc2)cc1[N+](=O)[O-] | -33.8%
CCOc1nc(N2CCCCC2)nc(-n2cc(-c3ccccc3)nn2)n1 | 8.93%
Cc1ccc(C2=N/C(=C/N3CCOCC3)C(=O)O2)cc1 | -17.8%
Cc1ccccc1NC(=O)CSCCN1C(=O)c2ccccc2C1=O | 7.68%
O=C(c1cc(-c2ccc(Cl)c(Cl)c2)on1)N1CCCCCC1 | 8.29%
COc1cccc(NC(=O)CCC(=O)Nc2cccc(OC)c2)c1 | 10.5%
CCN1CCN(C(=O)c2cc(-c3cccnc3)nc3ccc(Br)cc23)CC1 | -28.5%
COC(=O)c1ccccc1NC(=O)CN(c1ccc(OC)cc1)S(C)(=O)=O | -25.4%
O=[N+]([O-])c1cc([N+](=O)[O-])c(N2CCOCC2)cc1NCc1ccccc1 | 7.56%
